Laboratory results published in article PMC7819943, “Rice protein-binding microarrays: a tool to detect cis-acting elements near promoter regions in rice”.
Some of the results follow.

What follows are sequences tested against T1, OsWOX13 (Oryza sativa, UniProt Q5QMM3 1-267) (assay: protein-binding microarray (RPBM); PBS, 2% BSA, 51.3 ng/ul salmon testes DNA, 50 uM zinc acetate, 200 nM TF, 25 C, 1 h; high values mean tight binding). Conditions: protein: recombinant; tags: N-terminal polyhistidine and DsRed monomer fusion (pET32a); label: CyDye5-dUTP incorporated in the synthesized complementary strand; 3' TTTTT single-stranded linker to array surface; dsDNA, one strand shown.
T1 sequence: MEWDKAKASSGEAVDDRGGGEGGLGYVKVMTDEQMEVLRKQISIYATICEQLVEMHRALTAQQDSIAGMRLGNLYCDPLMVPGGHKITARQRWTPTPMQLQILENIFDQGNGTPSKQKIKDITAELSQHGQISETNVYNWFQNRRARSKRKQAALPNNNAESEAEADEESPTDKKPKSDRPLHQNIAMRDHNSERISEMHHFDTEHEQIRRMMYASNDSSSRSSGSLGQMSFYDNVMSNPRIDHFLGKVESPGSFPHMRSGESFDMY
Summary of the method: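 An Axon 4000B scanner gave the binding signal as per-feature fluorescence intensity in arbitrary units. This followed washing of a custom Agilent array that had been incubated for 1 h at 25 °C with 200 nM protein in PBS, 2% BSA, salmon testes DNA and 50 µM zinc acetate. The proteins were transcription factors fused at the N-terminus to polyhistidine and DsRed, expressed in E. coli BL21-CodonPlus and purified on Ni–NTA.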
With “ATAATAGATGCAAAATTACATATCTAATACGGATATCTGACGGAGTCACCTAGTGCAG” the binding signal was 11500 fluorescence intensity (a.u.).
For “CTGATTCCATGTTACCGTCAATCGTGAGGCCATCAGTTCCCGGAGTCACCTAGTGCAG”, the binding signal was 8150 fluorescence intensity (a.u.).
With “TCTCATTAATTAGATACTAACATATGCTTATCTGAATCTCCGGAGTCACCTAGTGCAG” the binding signal was 27800 fluorescence intensity (a.u.).
For “GATGACCTTAATTTGATTCCCAGAACATAAAATAAAAGGGCGGAGTCACCTAGTGCAG”, the binding signal was 12700 fluorescence intensity (a.u.).
In the case of “TCGATTGACAGTACACATCGTAGCCTGCATCAACGCAGAGCGGAGTCACCTAGTGCAG”, the binding signal is reported as 24400 fluorescence intensity (a.u.).
For “GAAGGGGAGCGGCGAAGCCCTGCTGGTTCGCTCAATTCATCGGAGTCACCTAGTGCAG”, the binding signal was 3380 fluorescence intensity (a.u.).
“CAATCAATCAAAGCACACAGATCTGAGCTAGCTAGCGCCCCGGAGTCACCTAGTGCAG” was tested, and the binding signal was 21600 fluorescence intensity (a.u.).
In the case of “AATAATTTATGAATAAAACTTTTATATACGTGTCCTTAGCCGGAGTCACCTAGTGCAG”, the binding signal is reported as 29400 fluorescence intensity (a.u.).
“AGTCGTTAGCGATTTAATTATATACAATAATCTTCACGTGCGGAGTCACCTAGTGCAG” was tested, and the binding signal was 4060 fluorescence intensity (a.u.).
“ACTCGTGATTTACTAAAACATTGCCCTATTGAAACCCTAACGGAGTCACCTAGTGCAG” was tested, and the binding signal was 15100 fluorescence intensity (a.u.).
With “AATAAAAGATTATCATATCTAAATAGAAGATATACCATCTCGGAGTCACCTAGTGCAG” the binding signal was 4160 fluorescence intensity (a.u.).
With “TTGTTAAATCATGGCGCAATTAGACTTAAAAGATTCGTCTCGGAGTCACCTAGTGCAG” the binding signal was 8820 fluorescence intensity (a.u.).
In the case of “AAGCTAATCATCAGAGTTATGCTGAGGATTCTAGCTTACACGGAGTCACCTAGTGCAG”, the binding signal is reported as 7330 fluorescence intensity (a.u.).
For “TCAGACAGACCAAATTGGGCTAAATATGAGACATTTAGGGCGGAGTCACCTAGTGCAG”, the binding signal was 7290 fluorescence intensity (a.u.).
With “CTCACCTGTGACAGGTGTTAAATTTGCAACCCGTCAAAGACGGAGTCACCTAGTGCAG” the binding signal was 8680 fluorescence intensity (a.u.).
“GTGTACTGATAGAGATTAGCAGCAGCTTAGTACTTCATGCCGGAGTCACCTAGTGCAG” was tested, and the binding signal was 9610 fluorescence intensity (a.u.).
“ATTAATTATTATCCAAGCGCAAACATGAAACATCCCTCCCCGGAGTCACCTAGTGCAG” was tested, and the binding signal was 25900 fluorescence intensity (a.u.).
In the case of “CGATGGTCCGGTGACAAATTAATCAACTTGACGTGGAGATCGGAGTCACCTAGTGCAG”, the binding signal is reported as 3580 fluorescence intensity (a.u.).
With “CCCAAATAGAAGTAGAATTGAGACACTGAGTGGTGCAAAGCGGAGTCACCTAGTGCAG” the binding signal was 3400 fluorescence intensity (a.u.).
With “CCAAACTTGCAATTCAATCTTTAAACTAATAATTAGCATGCGGAGTCACCTAGTGCAG” the binding signal was 12600 fluorescence intensity (a.u.).
“CAAACGTCAATTAATATAGAATTGGAGGGAGTATATACCTCGGAGTCACCTAGTGCAG” was tested, and the binding signal was 18200 fluorescence intensity (a.u.).
With “ATATAATTTGAAATGGAAAATTACATGGTTACATGAAACTCGGAGTCACCTAGTGCAG” the binding signal was 32800 fluorescence intensity (a.u.).
“ATTAATGAATGTTAATTTGTTGTTTGCCACAAGTGACTGGCGGAGTCACCTAGTGCAG” was tested, and the binding signal was 32700 fluorescence intensity (a.u.).
For “TCAATTGATTATTACTGCCGCTTACTGTCTCCTCTACTGCCGGAGTCACCTAGTGCAG”, the binding signal was 53300 fluorescence intensity (a.u.).
For “AAACAGATTATGATGGTAATCTTCTGTCCTCGCTGCGCCTCGGAGTCACCTAGTGCAG”, the binding signal was 6960 fluorescence intensity (a.u.).
In the case of “AATGATAGGGGACATAGAATAATTTGTCTTATAGTGCTAACGGAGTCACCTAGTGCAG”, the binding signal is reported as 10200 fluorescence intensity (a.u.).
In the case of “CAGAACGACAACCAATCACTTGGGAAGAGTTTACCGAAGGCGGAGTCACCTAGTGCAG”, the binding signal is reported as 3980 fluorescence intensity (a.u.).
With “ATTTGACTGGAGTCTAAGAGTACAATCAAATGCCATTATCCGGAGTCACCTAGTGCAG” the binding signal was 21900 fluorescence intensity (a.u.).
In the case of “AAGCTTCCTTTGATTGATCCGACTCCACCAAGAACACGATCGGAGTCACCTAGTGCAG”, the binding signal is reported as 22000 fluorescence intensity (a.u.).
In the case of “TATTATAATTTTCATGAATGGGTATTTCAGTTCCTTTTAGCGGAGTCACCTAGTGCAG”, the binding signal is reported as 8170 fluorescence intensity (a.u.).
In the case of “GAGAGAAAGAGATTGATTTTGATTATACTAGTTGGTTAGTCGGAGTCACCTAGTGCAG”, the binding signal is reported as 16300 fluorescence intensity (a.u.).
For “ATCTTAATTAATCATGTACTACTGGTTTTACACATTATGTCGGAGTCACCTAGTGCAG”, the binding signal was 29000 fluorescence intensity (a.u.).
“ATACTATGTTAATTTGTCTGTGTCCTAATGACGCACCATACGGAGTCACCTAGTGCAG” was tested, and the binding signal was 5570 fluorescence intensity (a.u.).
For “ATTAGCAAATAATTAATTAATCACGTGCTAATAGACTGCTCGGAGTCACCTAGTGCAG”, the binding signal was 41400 fluorescence intensity (a.u.).
In the case of “ACTTTATCTAATTTAATTGCACCACGTAGGGAGAGCTGCCCGGAGTCACCTAGTGCAG”, the binding signal is reported as 16400 fluorescence intensity (a.u.).
With “ATGAATGAGCTATTAGATTGGCTCTAGATGGATTAGAGCTCGGAGTCACCTAGTGCAG” the binding signal was 25900 fluorescence intensity (a.u.).
With “CTTTTATTAATTATTATAAATGCTATGCACATGCCACGTTCGGAGTCACCTAGTGCAG” the binding signal was 25300 fluorescence intensity (a.u.).
With “CCTGATTTCTAGCGAAACCGACCAGAATCCCTATTGGGCCCGGAGTCACCTAGTGCAG” the binding signal was 21900 fluorescence intensity (a.u.).
“TGTGCTGATTAAATGTGAGAGGCCACAGACTTGATGATATCGGAGTCACCTAGTGCAG” was tested, and the binding signal was 12200 fluorescence intensity (a.u.).
With “TATATATTTATCTAAATTGATGTGAAATACTCATTTGGAACGGAGTCACCTAGTGCAG” the binding signal was 3280 fluorescence intensity (a.u.).
“CCATATAATTTCGATCCACCAATCACAGCACCATCGATTTCGGAGTCACCTAGTGCAG” was tested, and the binding signal was 10100 fluorescence intensity (a.u.).
For “GTTTACATCCATTGATTAATTTAATTAGCTGCAAGAGCAACGGAGTCACCTAGTGCAG”, the binding signal was 37200 fluorescence intensity (a.u.).
For “CATTTCTATGATTGTTTCCCAGCCTATGCGAGTAGCAAGACGGAGTCACCTAGTGCAG”, the binding signal was 17900 fluorescence intensity (a.u.).
For “TTAGTGCTTAAATGATTAATCTATGGTCTAAATTATCTTTCGGAGTCACCTAGTGCAG”, the binding signal was 7610 fluorescence intensity (a.u.).
In the case of “CAAAATAAACGACGATTGAATTTTGCAAATTAACCTTGTACGGAGTCACCTAGTGCAG”, the binding signal is reported as 22600 fluorescence intensity (a.u.).
With “CAATCAAATTAATTACCATTCATCCTCTTAATTTAGTTTGCGGAGTCACCTAGTGCAG” the binding signal was 19700 fluorescence intensity (a.u.).
With “TTAACGGCGAATTGATTAAGATCTGTTCAGCAGCCAGCTGCGGAGTCACCTAGTGCAG” the binding signal was 24000 fluorescence intensity (a.u.).
In the case of “CCCATCAATTAAATAGAAATAACAAAGAAATGGAAAACAACGGAGTCACCTAGTGCAG”, the binding signal is reported as 5040 fluorescence intensity (a.u.).
With “GTAAGGGTTTAATTGTAATTAGGGATCACTCCAGAAGGCCCGGAGTCACCTAGTGCAG” the binding signal was 13400 fluorescence intensity (a.u.).
In the case of “TCCCACATGATTTTGTTTTGACTGTAGTTAGTTGGTTACTCGGAGTCACCTAGTGCAG”, the binding signal is reported as 17800 fluorescence intensity (a.u.).
With “ATGAATGAGTTATTAGATTGATGCCATATTTGGAAGATTACGGAGTCACCTAGTGCAG” the binding signal was 16500 fluorescence intensity (a.u.).
For “GGGAATACTAATTTACTTGATTACAGCGTTAACGAGGCATCGGAGTCACCTAGTGCAG”, the binding signal was 15200 fluorescence intensity (a.u.).
For “CAACGGTGACAGATTTGTCTAGCCTCCGACATATTGTAGCCGGAGTCACCTAGTGCAG”, the binding signal was 10100 fluorescence intensity (a.u.).
With “CCAACCCTGACAGACAAACAAGCGGAGTATGAGCCGTCGGCGGAGTCACCTAGTGCAG” the binding signal was 4020 fluorescence intensity (a.u.).
“TTTGATTTATATGCCATTGCCTTTGCTGAACAGAAAAGCTCGGAGTCACCTAGTGCAG” was tested, and the binding signal was 37600 fluorescence intensity (a.u.).
In the case of “TATGGGAATTGACTTTTAATTCCAATCTCTTGTTTGGGAACGGAGTCACCTAGTGCAG”, the binding signal is reported as 16200 fluorescence intensity (a.u.).
“CCAACTGATTTCTTCAAGAGCACACATCCAAACAGCGTTCCGGAGTCACCTAGTGCAG” was tested, and the binding signal was 4800 fluorescence intensity (a.u.).
“ATCAAATTTAGATTTTATTAAATTTTAGTTTACAAGAGCGCGGAGTCACCTAGTGCAG” was tested, and the binding signal was 17900 fluorescence intensity (a.u.).
With “TGCAATAATAAAATTCCTTGATTGCCTAGAGGAGCTTGAGCGGAGTCACCTAGTGCAG” the binding signal was 22300 fluorescence intensity (a.u.).
For “AAAATTACAAGATTACAACCATGGAGGGTCGTAACCAGGACGGAGTCACCTAGTGCAG”, the binding signal was 4520 fluorescence intensity (a.u.).
With “ATCTATAATTAGAGAATGTTTACTGTAGCATCACATAGGTCGGAGTCACCTAGTGCAG” the binding signal was 22800 fluorescence intensity (a.u.).
With “TTTAAATTAGATTATCCACACCATTAGATGAGGTGAAAGACGGAGTCACCTAGTGCAG” the binding signal was 16500 fluorescence intensity (a.u.).
In the case of “TCCAAATGAGTCAAATTTAAGATCTGCGGAGGCACCTTCCCGGAGTCACCTAGTGCAG”, the binding signal is reported as 4900 fluorescence intensity (a.u.).
With “CTGTTGGTTGTGATTGTTGTGGTGGGCACGCTGTTTGAACCGGAGTCACCTAGTGCAG” the binding signal was 3670 fluorescence intensity (a.u.).
For “GGGCTAAATTTCCATTCAAGTTACATTAGGCCCAATTATGCGGAGTCACCTAGTGCAG”, the binding signal was 7340 fluorescence intensity (a.u.).
“GATTTAACTTGGATAAATTTTAGAGGCTAAATTTGTACTGCGGAGTCACCTAGTGCAG” was tested, and the binding signal was 7380 fluorescence intensity (a.u.).
“AGCAAATGGCCTGATTTGTTAAAGATGTGGGGCCGAATTGCGGAGTCACCTAGTGCAG” was tested, and the binding signal was 5860 fluorescence intensity (a.u.).
With “CACAAACTCACATTCATTACTGTTACGCGTCTCCACGTGCCGGAGTCACCTAGTGCAG” the binding signal was 3430 fluorescence intensity (a.u.).
In the case of “CCGTGATTTAAATTTACTAACAACGAGAAGAATGTTAGAGCGGAGTCACCTAGTGCAG”, the binding signal is reported as 39800 fluorescence intensity (a.u.).
With “GTAAACTGGAGACGACGGTTATGCAAATATTTGCGAACCACGGAGTCACCTAGTGCAG” the binding signal was 4460 fluorescence intensity (a.u.).
For “TTGTTTGTTTACGCCTTAACTAATTGCTAGTAGTAGTACGCGGAGTCACCTAGTGCAG”, the binding signal was 5950 fluorescence intensity (a.u.).
